GI50 and TGI data for four compounds are collected here from PubChem BioAssay (NCI).

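Method: 48-hour compound exposure of cells in 96-well plates, five concentrations, linear interpolation of endpoints. The concentration for 50% growth inhibition is given as GI50. TGI marks complete inhibition of growth.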 Where only a bound is given, the exact number is not on record here.

The test system of the assay is NCI-H322M lung. Kind of assay: NCI anticancer screen, dose series, 48 h.

As to `C#CCOc1ccc(-c2csc(NC(=O)C=C)n2)cc1NS(=O)(=O)c1cccc2c(N(C)C)cccc12`, the GI50 is 7.12 µM and the TGI is 19.1 µM.
On the same counts, the results for `CC[C@]12C=CCN3CC[C@@]4(c5cc(NC(=O)COc6cc(O)c7c(=O)cc(-c8ccccc8)oc7c6)c(OC)cc5N(C)[C@H]4[C@@](O)(C(=O)OC)[C@@H]1OC(C)=O)[C@@H]32` are 1.76 µM and 3.84 µM.
In the case of `Cc1ccc2c(n1)C(=O)C(Cl)=C(Nc1ccc(C#N)cc1)C2=O`, the GI50 was 31.8 µM and the TGI was over 100 µM.
Turning to `C#C[C@]1(O)CC[C@H]2[C@@H]3CC=C4c5sc(Nc6ccc(C)cn6)nc5CC[C@]4(C)[C@H]3CC[C@@]21C`, the GI50 was 2.58 µM and the TGI is 14.3 µM.
